Source: article PMC10575737
Results are given in words; binding and its absence hold for the method and conditions named. For some assays here: In cells and extracts the contact can be indirect. Some entries that bind do so weakly or less than the wild type. For some assays here: Tags and fused reporters may be left off the sequences shown. Each block holds one molecule with its values, some of them ahead of it.

Protein sequences, listed by entry. Tags and fused reporters are not part of them.
UniProt Q96NE9: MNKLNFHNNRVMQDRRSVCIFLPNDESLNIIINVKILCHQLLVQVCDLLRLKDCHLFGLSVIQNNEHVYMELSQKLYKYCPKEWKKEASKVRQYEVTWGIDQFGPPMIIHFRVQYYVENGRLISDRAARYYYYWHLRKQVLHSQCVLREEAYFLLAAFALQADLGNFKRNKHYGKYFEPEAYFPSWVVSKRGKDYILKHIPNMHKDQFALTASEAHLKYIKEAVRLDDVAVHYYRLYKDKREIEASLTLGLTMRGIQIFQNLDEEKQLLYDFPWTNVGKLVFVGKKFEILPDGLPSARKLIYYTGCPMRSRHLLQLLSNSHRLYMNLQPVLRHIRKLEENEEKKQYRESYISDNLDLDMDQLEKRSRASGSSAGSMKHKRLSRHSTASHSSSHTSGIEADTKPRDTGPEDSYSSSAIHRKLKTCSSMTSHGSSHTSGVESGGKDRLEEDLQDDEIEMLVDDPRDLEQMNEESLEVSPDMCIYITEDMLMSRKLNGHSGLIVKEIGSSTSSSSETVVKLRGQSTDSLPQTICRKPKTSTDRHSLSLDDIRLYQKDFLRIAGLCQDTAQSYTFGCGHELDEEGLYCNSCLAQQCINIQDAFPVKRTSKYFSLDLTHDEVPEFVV
UniProt Q9P0L2: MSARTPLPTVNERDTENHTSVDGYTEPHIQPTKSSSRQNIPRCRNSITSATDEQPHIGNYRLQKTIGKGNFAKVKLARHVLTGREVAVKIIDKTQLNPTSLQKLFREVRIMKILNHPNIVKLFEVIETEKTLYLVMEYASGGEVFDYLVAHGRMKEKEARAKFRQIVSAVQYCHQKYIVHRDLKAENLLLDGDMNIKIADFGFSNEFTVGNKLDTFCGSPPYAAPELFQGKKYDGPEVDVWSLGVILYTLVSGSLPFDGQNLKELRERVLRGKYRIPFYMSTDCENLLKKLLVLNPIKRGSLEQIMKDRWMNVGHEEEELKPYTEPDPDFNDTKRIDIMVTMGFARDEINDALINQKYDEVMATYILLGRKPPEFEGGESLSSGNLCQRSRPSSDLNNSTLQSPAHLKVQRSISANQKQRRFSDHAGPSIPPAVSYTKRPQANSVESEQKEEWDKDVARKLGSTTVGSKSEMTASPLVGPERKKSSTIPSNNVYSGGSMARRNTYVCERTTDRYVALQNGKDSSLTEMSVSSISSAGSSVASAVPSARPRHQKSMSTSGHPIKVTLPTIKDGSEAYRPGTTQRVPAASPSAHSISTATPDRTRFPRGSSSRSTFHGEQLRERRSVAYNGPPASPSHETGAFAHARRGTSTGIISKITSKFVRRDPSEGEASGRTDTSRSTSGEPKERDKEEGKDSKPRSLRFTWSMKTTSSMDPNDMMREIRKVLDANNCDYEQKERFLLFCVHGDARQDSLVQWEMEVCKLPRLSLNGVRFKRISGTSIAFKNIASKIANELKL
UniProt Q7KZI7: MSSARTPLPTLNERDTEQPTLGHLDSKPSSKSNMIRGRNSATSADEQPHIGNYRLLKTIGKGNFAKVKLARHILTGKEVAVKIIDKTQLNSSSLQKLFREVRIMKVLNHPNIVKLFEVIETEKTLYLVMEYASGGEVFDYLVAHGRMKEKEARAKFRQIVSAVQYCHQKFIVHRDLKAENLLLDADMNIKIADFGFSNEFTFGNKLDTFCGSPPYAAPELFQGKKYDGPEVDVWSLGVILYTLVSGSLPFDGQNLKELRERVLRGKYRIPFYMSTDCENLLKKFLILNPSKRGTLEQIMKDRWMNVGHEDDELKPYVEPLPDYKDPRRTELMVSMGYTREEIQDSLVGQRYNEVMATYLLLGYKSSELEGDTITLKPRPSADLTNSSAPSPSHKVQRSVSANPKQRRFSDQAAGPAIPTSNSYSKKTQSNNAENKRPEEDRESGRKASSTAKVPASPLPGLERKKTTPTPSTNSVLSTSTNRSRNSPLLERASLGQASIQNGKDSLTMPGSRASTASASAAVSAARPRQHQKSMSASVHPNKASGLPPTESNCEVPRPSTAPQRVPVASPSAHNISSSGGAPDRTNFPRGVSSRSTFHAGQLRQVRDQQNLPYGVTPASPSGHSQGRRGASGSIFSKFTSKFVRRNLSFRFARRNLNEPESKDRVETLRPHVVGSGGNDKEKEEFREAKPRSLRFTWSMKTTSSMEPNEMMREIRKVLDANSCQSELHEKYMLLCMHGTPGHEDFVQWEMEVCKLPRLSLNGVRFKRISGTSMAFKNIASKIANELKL
UniProt P27448: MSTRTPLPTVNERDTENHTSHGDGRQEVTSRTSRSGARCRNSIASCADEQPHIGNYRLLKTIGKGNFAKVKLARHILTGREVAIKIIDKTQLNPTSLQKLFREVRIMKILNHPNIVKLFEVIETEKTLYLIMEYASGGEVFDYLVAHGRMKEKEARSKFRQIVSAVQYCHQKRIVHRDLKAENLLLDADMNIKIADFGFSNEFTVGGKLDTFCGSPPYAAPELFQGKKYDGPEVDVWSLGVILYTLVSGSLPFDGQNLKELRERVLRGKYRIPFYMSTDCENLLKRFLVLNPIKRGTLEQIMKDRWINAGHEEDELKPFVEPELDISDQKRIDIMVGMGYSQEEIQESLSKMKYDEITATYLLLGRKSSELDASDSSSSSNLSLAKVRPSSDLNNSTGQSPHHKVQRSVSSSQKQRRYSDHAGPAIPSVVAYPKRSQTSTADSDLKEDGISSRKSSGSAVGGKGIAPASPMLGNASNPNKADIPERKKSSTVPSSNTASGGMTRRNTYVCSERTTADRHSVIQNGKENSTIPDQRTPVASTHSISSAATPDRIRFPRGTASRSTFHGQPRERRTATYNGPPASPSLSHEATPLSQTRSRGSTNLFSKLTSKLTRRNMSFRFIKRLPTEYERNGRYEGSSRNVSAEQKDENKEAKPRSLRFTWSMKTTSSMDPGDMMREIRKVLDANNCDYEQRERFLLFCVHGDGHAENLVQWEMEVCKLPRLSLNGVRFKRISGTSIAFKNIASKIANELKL
UniProt Q05512: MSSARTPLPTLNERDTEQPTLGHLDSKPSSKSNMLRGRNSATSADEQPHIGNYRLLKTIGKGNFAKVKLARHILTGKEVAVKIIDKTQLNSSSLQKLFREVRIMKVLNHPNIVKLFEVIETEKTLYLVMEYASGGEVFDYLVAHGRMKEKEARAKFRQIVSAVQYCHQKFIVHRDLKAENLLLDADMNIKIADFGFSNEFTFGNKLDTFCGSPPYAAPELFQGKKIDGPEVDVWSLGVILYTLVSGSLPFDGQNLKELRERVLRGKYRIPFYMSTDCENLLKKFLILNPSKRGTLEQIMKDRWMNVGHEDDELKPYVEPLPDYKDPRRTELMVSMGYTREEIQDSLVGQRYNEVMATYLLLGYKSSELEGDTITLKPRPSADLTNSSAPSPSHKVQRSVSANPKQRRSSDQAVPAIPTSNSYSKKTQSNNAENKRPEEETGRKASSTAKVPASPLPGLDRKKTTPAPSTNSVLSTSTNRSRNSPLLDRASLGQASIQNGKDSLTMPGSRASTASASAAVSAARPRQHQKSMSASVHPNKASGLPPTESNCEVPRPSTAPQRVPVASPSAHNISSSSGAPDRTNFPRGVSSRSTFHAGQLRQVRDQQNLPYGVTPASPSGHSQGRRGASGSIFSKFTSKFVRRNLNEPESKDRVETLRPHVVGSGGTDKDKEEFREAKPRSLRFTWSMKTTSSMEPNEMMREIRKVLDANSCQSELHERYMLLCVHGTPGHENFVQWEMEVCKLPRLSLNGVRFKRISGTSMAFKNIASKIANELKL
UniProt Q03141: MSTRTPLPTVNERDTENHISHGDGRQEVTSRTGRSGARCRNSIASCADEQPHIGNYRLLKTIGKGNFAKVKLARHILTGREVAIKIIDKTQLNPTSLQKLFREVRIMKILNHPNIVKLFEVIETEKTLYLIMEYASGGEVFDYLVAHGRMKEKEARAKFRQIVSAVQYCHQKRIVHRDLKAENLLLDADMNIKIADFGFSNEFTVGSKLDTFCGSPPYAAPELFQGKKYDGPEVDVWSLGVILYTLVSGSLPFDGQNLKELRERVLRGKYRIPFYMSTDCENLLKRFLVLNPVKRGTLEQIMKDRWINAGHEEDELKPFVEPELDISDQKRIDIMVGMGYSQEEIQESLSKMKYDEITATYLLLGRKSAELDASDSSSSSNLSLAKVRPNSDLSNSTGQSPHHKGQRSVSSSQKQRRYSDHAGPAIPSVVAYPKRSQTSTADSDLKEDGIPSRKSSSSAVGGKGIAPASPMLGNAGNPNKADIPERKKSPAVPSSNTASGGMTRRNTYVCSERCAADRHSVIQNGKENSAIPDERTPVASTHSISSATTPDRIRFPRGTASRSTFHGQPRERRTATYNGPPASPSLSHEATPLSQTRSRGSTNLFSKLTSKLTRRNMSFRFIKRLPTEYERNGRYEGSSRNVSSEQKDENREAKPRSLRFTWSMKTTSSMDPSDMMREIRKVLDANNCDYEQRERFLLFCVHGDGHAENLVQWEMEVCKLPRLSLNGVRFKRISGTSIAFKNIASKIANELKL
UniProt P35240: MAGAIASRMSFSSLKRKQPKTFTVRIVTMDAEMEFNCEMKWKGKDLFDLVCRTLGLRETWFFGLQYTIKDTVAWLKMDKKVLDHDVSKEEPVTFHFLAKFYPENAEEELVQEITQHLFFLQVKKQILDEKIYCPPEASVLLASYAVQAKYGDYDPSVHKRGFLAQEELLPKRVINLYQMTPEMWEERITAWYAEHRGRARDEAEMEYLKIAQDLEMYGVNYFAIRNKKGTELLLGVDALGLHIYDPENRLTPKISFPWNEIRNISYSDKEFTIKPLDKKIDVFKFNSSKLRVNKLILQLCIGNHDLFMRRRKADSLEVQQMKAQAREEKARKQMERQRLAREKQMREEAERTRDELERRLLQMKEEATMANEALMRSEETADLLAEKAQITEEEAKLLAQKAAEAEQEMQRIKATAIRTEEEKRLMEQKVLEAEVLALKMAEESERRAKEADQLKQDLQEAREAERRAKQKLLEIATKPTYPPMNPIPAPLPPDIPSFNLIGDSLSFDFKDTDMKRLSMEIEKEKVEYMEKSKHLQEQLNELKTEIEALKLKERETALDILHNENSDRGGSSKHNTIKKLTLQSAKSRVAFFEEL

Columns and labels:
GST-tagged NUMB1 = biological target: T1, GST-tagged NUMB1 (UniProt P49757); assay: pull-down; GST affinity bead precipitates of GST-tagged NUMB with His-tagged proteins, immunoblot; test of direct binding; both purified
T1 sequence: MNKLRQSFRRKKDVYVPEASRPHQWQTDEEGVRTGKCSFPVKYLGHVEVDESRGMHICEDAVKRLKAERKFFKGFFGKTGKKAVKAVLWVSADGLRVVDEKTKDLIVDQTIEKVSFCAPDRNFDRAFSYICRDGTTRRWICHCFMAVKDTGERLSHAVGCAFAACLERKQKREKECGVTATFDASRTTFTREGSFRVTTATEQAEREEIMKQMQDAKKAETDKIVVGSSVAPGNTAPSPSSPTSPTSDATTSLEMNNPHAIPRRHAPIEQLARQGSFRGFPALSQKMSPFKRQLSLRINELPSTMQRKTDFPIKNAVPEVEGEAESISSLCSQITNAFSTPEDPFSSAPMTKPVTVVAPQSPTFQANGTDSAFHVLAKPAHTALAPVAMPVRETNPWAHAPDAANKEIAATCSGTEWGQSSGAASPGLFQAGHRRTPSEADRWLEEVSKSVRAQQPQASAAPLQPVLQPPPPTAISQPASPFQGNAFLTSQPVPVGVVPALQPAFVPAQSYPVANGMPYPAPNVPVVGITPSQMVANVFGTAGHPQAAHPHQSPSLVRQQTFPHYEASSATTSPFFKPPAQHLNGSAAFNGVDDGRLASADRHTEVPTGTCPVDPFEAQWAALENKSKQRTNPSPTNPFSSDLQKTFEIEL

NUMB1 = biological target: T2, NUMB1 (UniProt P49757); assay: co-IP; whole-cell lysates from HEK293T cells cotransfected with the indicated constructs
T2 sequence: T1 sequence

NUMB2 = biological target: T3, NUMB2 (UniProt P49757); assay: as above
T3 sequence: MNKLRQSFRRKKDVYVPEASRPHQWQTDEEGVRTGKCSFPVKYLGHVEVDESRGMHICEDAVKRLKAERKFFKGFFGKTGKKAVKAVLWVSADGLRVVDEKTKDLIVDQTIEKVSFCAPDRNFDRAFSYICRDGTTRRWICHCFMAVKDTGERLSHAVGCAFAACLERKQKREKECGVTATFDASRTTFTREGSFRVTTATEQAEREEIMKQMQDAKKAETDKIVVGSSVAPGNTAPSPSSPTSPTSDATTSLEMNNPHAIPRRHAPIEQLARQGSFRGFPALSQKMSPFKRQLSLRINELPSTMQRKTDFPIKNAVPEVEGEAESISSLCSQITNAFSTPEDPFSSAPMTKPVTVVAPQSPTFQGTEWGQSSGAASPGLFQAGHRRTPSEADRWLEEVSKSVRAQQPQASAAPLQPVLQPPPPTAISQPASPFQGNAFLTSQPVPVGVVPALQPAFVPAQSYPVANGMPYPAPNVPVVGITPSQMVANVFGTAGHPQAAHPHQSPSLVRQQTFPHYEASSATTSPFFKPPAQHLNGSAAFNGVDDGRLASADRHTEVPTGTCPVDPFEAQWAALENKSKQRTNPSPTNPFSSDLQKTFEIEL

NUMB3 = biological target: T4, NUMB3 (UniProt P49757); assay: as above
T4 sequence: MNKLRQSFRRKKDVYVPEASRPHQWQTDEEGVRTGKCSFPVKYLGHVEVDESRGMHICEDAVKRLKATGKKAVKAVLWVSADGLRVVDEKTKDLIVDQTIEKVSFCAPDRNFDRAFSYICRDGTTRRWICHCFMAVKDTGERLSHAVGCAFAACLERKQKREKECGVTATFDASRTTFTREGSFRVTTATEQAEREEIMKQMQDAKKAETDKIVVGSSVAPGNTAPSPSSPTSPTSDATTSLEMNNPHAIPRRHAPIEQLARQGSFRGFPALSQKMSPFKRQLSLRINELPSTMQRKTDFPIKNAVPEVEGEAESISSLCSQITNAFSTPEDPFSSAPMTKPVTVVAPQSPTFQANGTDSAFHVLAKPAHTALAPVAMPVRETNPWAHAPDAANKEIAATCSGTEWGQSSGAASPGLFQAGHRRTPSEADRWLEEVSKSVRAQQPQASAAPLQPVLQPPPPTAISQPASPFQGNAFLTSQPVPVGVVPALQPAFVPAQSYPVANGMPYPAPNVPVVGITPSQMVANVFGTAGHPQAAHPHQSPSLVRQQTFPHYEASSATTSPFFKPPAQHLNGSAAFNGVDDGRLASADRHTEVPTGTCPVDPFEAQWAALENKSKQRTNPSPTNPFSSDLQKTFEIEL

NUMB4 = biological target: T5, NUMB4 (UniProt P49757); assay: as above
T5 sequence: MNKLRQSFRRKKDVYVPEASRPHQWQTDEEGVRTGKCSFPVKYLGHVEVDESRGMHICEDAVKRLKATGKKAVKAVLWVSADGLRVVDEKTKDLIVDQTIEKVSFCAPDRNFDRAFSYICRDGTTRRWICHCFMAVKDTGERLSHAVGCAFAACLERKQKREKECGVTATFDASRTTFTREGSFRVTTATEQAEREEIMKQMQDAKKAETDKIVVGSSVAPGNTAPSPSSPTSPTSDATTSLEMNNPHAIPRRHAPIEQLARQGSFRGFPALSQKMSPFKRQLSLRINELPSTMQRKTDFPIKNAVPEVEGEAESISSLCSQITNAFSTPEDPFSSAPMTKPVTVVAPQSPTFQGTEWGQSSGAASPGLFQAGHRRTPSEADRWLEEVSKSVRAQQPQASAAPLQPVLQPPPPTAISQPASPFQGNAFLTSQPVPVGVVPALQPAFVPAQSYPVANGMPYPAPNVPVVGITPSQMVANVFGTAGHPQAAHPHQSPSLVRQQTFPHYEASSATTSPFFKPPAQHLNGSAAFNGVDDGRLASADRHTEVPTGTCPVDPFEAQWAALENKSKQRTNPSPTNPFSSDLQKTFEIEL

[1] = biological target: T6, MST1 (mouse hepatocytes) (mouse (endogenous in hepatocytes)) (UniProt Q9JI11); assay: co-IP; whole-cell lysates of primary hepatocytes from mice (WT; Numb and Ww45 knock-outs; with or without DDC), endogenous proteins
T6 sequence: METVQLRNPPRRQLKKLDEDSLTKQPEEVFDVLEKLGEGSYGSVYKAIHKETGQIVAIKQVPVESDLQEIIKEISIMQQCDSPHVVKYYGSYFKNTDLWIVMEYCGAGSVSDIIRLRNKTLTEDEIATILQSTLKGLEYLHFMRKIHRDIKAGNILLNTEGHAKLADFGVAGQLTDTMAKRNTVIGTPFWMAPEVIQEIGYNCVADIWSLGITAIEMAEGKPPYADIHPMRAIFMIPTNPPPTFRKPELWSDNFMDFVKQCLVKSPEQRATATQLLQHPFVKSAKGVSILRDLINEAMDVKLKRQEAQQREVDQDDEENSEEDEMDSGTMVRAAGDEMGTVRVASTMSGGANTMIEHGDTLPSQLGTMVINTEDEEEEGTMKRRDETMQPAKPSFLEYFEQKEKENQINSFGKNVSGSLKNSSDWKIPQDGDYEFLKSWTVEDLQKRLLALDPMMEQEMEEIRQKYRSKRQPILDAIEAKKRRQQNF

[2] = biological target: NUMB (mouse hepatocytes) (mouse (endogenous in primary hepatocytes)) (UniProt Q9QZS3); assay: as above
[3] = biological target: T7, NUMB endocytic adaptor protein (human (endogenous in HepG2)) (UniProt P49757); assay: co-IP; whole-cell lysates from HepG2 cells cultured at different cell densities (LCD, HCD), endogenous proteins; also SPTAN1 Y1176F knock-in cells, knockdown of SRC or bosutinib
T7 sequence: T1 sequence

[4] = biological target: T8, sterile 20-like kinase MST1 (human (endogenous in HepG2)) (UniProt Q13043); assay: as above
T8 sequence: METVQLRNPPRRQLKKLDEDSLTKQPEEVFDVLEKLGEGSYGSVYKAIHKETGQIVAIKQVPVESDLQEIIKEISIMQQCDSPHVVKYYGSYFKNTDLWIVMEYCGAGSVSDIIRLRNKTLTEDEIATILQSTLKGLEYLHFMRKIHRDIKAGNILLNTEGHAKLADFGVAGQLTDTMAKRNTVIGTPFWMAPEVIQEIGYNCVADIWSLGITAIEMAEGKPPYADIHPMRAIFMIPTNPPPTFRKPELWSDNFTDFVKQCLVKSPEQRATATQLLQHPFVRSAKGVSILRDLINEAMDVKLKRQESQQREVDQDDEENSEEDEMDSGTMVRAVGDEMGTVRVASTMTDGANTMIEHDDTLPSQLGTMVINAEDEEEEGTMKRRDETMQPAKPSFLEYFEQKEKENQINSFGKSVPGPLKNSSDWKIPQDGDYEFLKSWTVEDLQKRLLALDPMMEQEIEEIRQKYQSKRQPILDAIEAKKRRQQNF

binding (GST-tagged NUMB1): no binding
Molecule: AMOT (tested for direct binding to NUMB1) (from UniProt Q4VCS5 1-1084)

binding (GST-tagged NUMB1): no binding
Molecule: FRMD6 (tested for direct binding to NUMB1) (from UniProt Q96NE9 1-622)

binding (GST-tagged NUMB1): binds
Molecule: His-tagged MARK1 (from UniProt Q9P0L2 1-795) (enzyme)

binding (GST-tagged NUMB1): binds
Molecule: His-tagged MARK2 (from UniProt Q7KZI7 1-788) (enzyme)

binding (GST-tagged NUMB1): binds
Molecule: His-tagged MARK3 (from UniProt P27448 1-753) (enzyme)

binding (NUMB1): binds | binding (NUMB2): binds | binding (NUMB3): binds | binding (NUMB4): binds
Molecule: MARK2 (cotransfected with the NUMB isoforms) (from UniProt Q7KZI7 1-788) (enzyme)

binding [1]: binds | binding [2]: binds
Molecule: MARK2 (mouse hepatocytes) (from UniProt Q05512 1-776) (enzyme)

binding [2]: binds
Molecule: MARK3 (mouse hepatocytes) (from UniProt Q03141 1-753) (enzyme)

binding (GST-tagged NUMB1): no binding
Molecule: NF2 (tested for direct binding to NUMB1) (from UniProt P35240 1-595)

binding [3]: binds | binding [4]: binds
Molecule: microtubule affinity-regulating kinase 2 (from UniProt Q7KZI7 1-788) (enzyme)

binding [3]: binds
Molecule: microtubule affinity-regulating kinase 3 (from UniProt P27448 1-753) (enzyme)

binding (GST-tagged NUMB1): no binding
B1: RASSF1 (tested for direct binding to NUMB1) (protein, UniProt Q9NS23 1-344)
chain: MSGEPELIELRELAPAGRAGKGRTRLERANALRIARGTACNPTRQLVPGRGHRFQPAGPATHTWCDLCGDFIWGVVRKGLQCARLSADCKFTCHYRCRALVCLDCCGPRDLGWEPAVERDTNVDEPVEWETPDLSQAEIEQKIKEYNAQINSNLFMSLNKDGSYTGFIKVQLKLVRPVSVPSSKKPPSLQDARRGPGRGTSVRRRTSFYLPKDAVKHLHVLSRTRAREVIEALLRKFLVVDDPRKFALFERAERHGQVYLRKLLDDEQPLRLRLLAGPSDKALSFVLKENDSGEVNWDAFSMPELHNFLRILQREEEEHLRQILQKYSYCRQKIQEALHACPLG
